# Experimental data from the supplement of paper PMC12217912.
# This is one part of the list. The full chains were built here from the parent and the listed change. Inactive controls read about 0.05.
# B1: TEV protease; numbered along this chain (parent)
# chain: MGESLFKGPRDYNPISSSICHLTNESDGHTTSLYGIGFGPFIITNKHLFRRNNGTLVVQSLHGVFKVKDTTTLQQHLVDGRDMIIIRMPKDFPPFPQKLKFREPQREERICLVTTNFQTKSMSSMVSDTSCTFPSGDGIFWKHWIQTKDGQCGSPLVSTRDGFIVGIHSASNFTNTNNYFTSVPKNFMELLTNQEAQQWVSGWRLNADSVLWGGHKVFMVKPEEPFQPVKEATQL
# Variants of: B1
# Assay: raw area under fraction-flipped curve 0-4 h after induction (AUC4h, not background-subtracted), DNA-recorder readout of cleavage of the substrate (dimensionless); higher = more cleavage of the substrate by the protease variant
# Conditions: temperature: 34 °C; time window: 0-4 h after rhamnose induction
# Experimental: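 In vivo DNA recorder in E. coli TOP10(DE3) ΔrhaA at 34 °C. Each TEVp single-site mutant (parent TEVp 0) is paired with a single-site variant of the 7-mer TEVs (canonical ENLYFQ|S). The substrate sits between flexible linkers in a Bxb1-sfGFP-TEVs-SsrA fusion, so cleavage stabilises Bxb1 and speeds flipping of a recombination array, read by NGS. The value is the raw area under the fraction-flipped curve over 0-4 h after rhamnose induction (AUC4h), with ≥20 reads per time point. It is not background-subtracted; inactive controls average about 0.047.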
# 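Note: Bxb1 expression induced with 0.2% (w/v) L-rhamnose at OD600 near 0.5, cultures sampled hourly, flipped fraction per protease–substrate barcode pair counted by paired-end Illumina sequencing.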
Variant,area with substrate ENLYAQS,area with substrate ENLYDQS,area with substrate ENLYEQS,area with substrate ENLYHQS,area with substrate ENLYIQS,area with substrate ENLYNQS,area with substrate ENLYPQS,area with substrate ENLYQQS,area with substrate ENLYRQS,area with substrate ENLYSQS,area with substrate ENLYTQS,area with substrate ENLYVQS,area with substrate ENLYWQS,area with substrate ENLYYQS,area with substrate ENLYGQS,area with substrate ENLYKQS,area with substrate ENLYLQS,area with substrate ENLYMQS,area with substrate ENLYCQS
F163I,0.0829,0.0621,0.0741,0.0557,0.102,0.0626,0.0084,0.0692,0.0585,0.0583,0.0608,0.0877,0.0429,0.0715,,,,,
I164Q,0.0375,0.0535,0.05,0.0571,0.0403,,0.0517,0.0638,,0.0533,,0.0433,0.0501,0.0472,0.0536,0.0348,0.0471,0.0486,
V165P,0.071,0.0838,0.0497,0.0465,0.0651,0.0507,0.0458,0.0737,,,0.0622,0.0495,0.0528,,0.0724,0.0587,,0.0813,0.0572
G166F,0.0568,0.0511,0.0669,0.0528,0.0405,0.0574,0.0406,,,,,,0.0471,0.0324,,,,0.0497,0.0594
G166W,0.0543,,0.055,0.056,,0.0765,0.0608,,,,,0.0564,0.0442,0.0545,0.0524,0.0464,,0.0545,0.0569
I167V,0.068,,0.0587,0.0581,0.115,,0.079,,0.0558,0.0685,,0.0967,0.07,,,0.0592,,0.0704,0.103
S169D,0.0659,0.0538,0.0603,0.0584,0.0675,0.0522,0.0632,0.0607,,0.0481,0.101,0.0563,0.0618,0.0695,0.0518,0.0609,0.0902,0.0463,0.0728
S169I,0.0585,0.0571,0.0591,0.0614,0.0578,0.0518,0.0527,0.0618,0.0595,0.0618,,0.0596,0.0604,0.0653,0.0541,0.0582,,0.0551,0.0542
S171H,0.0688,0.053,0.0625,0.0569,,0.0629,0.0704,0.0575,0.0679,0.0801,0.0386,0.0686,0.0591,0.0398,0.0619,0.0607,,0.0745,0.0721
F173H,0.0725,0.0497,0.0575,0.0645,0.101,0.0625,0.0699,0.0731,0.0635,0.078,0.0597,0.088,0.0613,0.0727,0.0719,0.0645,0.0582,0.0714,0.0766
N175L,0.0525,0.0804,0.058,0.0532,,,0.051,,0.0328,0.1,,0.0865,0.0122,0.0651,0.0626,0.0659,,0.0862,0.0521
N177I,0.0878,0.0629,0.0762,0.104,0.21,0.0828,0.0948,0.0648,0.065,0.0943,0.0989,0.161,,,,,,,
Y179A,0.116,0.0687,0.0575,0.0478,0.072,,,,0.0674,0.0641,,,,0.0525,0.0583,,0.0625,0.0523,0.0528
S182R,0.0583,0.0477,0.0608,,0.0968,0.0519,0.0541,0.0561,0.0521,0.0509,0.0778,0.077,0.0572,0.0616,0.062,,,,0.0651
V183W,0.0675,0.0564,0.0585,0.0603,0.0831,0.0508,0.0812,0.0682,0.0607,0.0557,,0.113,0.0655,,0.0573,0.0717,0.0685,0.0745,
F187D,0.0512,,,0.0602,,,0.0551,,0.0435,0.0468,,,0.0506,0.0707,,0.0608,,0.0765,0.0886
F187R,0.0333,0.0216,0.0552,0.0549,,0.0466,0.0465,,0.0708,,0.0534,0.0826,0.0514,0.0554,0.0596,0.0433,0.055,0.0486,0.0558
F187Y,0.0475,0.0637,0.0662,0.0618,,0.059,0.0617,0.113,0.0576,0.0587,0.0814,0.0772,,,,0.0539,,,0.0617
M188S,0.0681,0.0624,0.0721,,,0.0853,,0.0559,,0.0818,0.0654,0.143,0.0608,,0.0678,0.0647,,,
E189C,0.0761,0.0379,0.0682,0.0521,,0.0632,,,0.0677,0.0693,0.056,,0.058,,0.0701,0.0555,0.0789,0.0696,0.0574
E189N,0.0841,0.0656,0.0652,0.0639,0.125,0.0721,0.0747,0.0587,0.0447,,,0.112,0.0725,0.0688,0.0536,0.0377,0.0855,0.0758,
E189T,0.0666,0.0526,0.0477,0.0671,,0.0579,0.069,0.067,0.0562,0.0844,0.0778,,0.0813,0.0559,0.0735,0.0548,0.0929,,
A196D,0.084,0.066,0.0854,,0.131,0.0613,0.0593,0.0556,0.0519,,,0.0997,,0.0634,0.0701,0.0573,,0.0657,0.0842
A196F,0.092,0.0572,0.0673,0.072,,0.0558,0.0592,,0.0587,,,0.121,0.0767,0.0828,,,0.0944,0.0834,0.0916
